No constants are given. Whether binding was seen depends on the method and setting. In cells and extracts the contact can be indirect. Some binding calls cover weakened binding; strength is not graded here. For part of these data: Sequences can lack the tags named with a protein.

Protein sequences, listed by entry. Tags and fused reporters are not part of them.
UniProt Q15910: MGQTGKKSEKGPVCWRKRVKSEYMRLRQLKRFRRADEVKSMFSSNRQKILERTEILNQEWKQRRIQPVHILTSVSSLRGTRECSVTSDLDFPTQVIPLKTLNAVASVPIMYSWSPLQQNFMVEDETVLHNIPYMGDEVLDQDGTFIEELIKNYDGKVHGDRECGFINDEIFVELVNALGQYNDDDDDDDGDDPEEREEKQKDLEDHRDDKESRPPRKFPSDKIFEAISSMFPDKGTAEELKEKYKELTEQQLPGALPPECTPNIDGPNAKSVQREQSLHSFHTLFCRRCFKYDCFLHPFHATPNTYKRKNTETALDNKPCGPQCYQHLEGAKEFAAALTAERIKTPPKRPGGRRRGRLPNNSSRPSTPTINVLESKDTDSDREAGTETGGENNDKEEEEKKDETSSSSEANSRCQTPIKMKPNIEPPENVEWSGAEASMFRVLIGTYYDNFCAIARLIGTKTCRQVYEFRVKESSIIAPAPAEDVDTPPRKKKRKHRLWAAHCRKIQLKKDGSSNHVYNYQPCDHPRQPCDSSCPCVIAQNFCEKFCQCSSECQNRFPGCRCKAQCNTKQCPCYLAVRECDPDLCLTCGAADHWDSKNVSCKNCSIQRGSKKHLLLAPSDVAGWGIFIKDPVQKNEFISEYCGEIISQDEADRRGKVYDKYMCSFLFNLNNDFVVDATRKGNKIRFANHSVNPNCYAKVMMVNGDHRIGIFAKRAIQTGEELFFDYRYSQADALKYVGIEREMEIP
UniProt Q99496: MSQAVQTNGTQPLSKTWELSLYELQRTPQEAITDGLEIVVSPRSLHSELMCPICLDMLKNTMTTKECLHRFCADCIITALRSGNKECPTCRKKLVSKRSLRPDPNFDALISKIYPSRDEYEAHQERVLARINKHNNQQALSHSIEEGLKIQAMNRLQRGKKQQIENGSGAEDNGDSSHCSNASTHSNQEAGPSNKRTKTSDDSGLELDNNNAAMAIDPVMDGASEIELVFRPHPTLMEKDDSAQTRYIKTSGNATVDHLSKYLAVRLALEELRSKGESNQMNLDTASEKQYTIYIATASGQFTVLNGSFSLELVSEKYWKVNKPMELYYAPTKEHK
UniProt Q13547: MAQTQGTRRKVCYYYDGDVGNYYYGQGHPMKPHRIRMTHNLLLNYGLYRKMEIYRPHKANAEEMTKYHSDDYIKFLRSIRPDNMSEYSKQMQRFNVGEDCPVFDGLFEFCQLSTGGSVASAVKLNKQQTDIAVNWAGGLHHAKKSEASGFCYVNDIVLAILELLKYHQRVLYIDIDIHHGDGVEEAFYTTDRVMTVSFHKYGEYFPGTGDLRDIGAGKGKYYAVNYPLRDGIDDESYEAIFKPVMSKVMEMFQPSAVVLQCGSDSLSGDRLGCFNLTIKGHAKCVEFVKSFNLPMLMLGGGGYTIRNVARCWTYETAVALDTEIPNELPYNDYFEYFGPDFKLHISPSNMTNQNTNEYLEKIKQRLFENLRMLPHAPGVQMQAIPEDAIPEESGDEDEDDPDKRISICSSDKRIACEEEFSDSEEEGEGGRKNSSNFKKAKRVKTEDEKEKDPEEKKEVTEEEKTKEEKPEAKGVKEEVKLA
UniProt O95863: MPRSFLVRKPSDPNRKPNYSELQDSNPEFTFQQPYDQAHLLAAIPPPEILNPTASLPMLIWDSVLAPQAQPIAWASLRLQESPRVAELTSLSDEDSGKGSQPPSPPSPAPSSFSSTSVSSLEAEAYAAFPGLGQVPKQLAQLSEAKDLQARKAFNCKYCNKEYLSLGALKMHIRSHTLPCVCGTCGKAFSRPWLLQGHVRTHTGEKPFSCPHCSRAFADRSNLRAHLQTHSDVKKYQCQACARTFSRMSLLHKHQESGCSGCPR
UniProt O00571: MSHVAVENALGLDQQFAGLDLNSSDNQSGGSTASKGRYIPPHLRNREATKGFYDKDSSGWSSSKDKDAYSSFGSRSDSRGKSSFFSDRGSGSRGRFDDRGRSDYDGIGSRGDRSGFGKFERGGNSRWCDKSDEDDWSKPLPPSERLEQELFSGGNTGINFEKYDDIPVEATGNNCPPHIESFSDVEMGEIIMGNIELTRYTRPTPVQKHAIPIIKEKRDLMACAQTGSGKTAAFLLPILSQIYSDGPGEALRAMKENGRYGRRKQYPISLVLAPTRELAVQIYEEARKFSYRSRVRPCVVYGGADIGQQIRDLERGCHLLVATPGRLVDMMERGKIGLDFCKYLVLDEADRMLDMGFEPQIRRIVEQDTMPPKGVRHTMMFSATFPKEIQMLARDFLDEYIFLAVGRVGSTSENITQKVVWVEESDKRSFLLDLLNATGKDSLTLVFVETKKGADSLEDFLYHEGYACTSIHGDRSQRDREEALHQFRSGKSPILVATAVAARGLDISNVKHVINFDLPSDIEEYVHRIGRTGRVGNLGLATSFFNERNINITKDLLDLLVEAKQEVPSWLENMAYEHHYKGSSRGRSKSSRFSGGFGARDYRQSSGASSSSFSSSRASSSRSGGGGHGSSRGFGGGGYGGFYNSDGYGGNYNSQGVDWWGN
UniProt P17844: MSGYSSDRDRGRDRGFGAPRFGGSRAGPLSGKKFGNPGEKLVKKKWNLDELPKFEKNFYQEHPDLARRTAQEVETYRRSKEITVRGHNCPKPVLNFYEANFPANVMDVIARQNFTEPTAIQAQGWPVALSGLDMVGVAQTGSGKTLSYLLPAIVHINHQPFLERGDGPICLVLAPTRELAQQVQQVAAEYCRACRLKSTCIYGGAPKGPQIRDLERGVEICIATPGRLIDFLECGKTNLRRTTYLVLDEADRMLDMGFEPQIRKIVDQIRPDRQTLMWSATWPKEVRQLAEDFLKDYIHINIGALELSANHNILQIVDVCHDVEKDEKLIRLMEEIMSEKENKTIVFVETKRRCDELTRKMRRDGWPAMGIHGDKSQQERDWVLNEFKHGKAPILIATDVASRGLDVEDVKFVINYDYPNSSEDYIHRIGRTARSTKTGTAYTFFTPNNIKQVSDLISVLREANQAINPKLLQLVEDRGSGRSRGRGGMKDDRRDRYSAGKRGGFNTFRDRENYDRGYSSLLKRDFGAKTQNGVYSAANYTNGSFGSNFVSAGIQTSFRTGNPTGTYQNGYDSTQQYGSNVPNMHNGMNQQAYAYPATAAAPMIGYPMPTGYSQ

Results on five substances are retold here after publication PMC7895950.

The target of one assay is T1, Flag-Twist2 (UniProt Q8WVJ9).
T1 sequence: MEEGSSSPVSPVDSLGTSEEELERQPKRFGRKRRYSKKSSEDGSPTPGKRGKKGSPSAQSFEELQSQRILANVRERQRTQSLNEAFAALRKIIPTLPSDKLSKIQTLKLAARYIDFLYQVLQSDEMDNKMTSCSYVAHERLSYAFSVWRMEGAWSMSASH
The experiment in a line: co-IP; 293T cells transfected with plasmids as indicated for 24 h; RIPA lysates, antibodies and protein A/G magnetic beads, western blot. For orientation: Immunoblotting shows a protein as a band on a membrane.

Another assay concerns the target Ezh2 (in 293T cells) (UniProt Q15910). Described as above.
A further assay deals with HA-Ring1b (UniProt Q99496). Described as above.
A further assay addresses HA-HDAC1 (UniProt Q13547). The description is as above.
The target of the next assay is Flag-Snail1 (UniProt O95863). Described as above.
The target of assay [1] is Ring1b (endogenous, breast cell lines) (human (endogenous in MCF-10A, MCF-7, MDA-MB-231)) (UniProt Q99496). The experiment in a line: co-IP; lysate of MCF-7 cells, endogenous proteins; antibodies and protein A/G magnetic beads, western blot.
The target is the same in assay [2]. The assay can be described thus: co-IP; lysate of 231 (MDA-MB-231) cells, endogenous proteins; antibodies and protein A/G magnetic beads, western blot.
Assay [3] concerns the target Ring1b stably overexpressed in 10A cells (10A-Ring1b) (UniProt Q99496). The assay can be described thus: co-IP; lysate of 10A-Ring1b cells (MCF-10A stably overexpressing Ring1b); antibodies and protein A/G magnetic beads, western blot.

Consider Flag-DDX3X (from UniProt O00571 1-662), for which the results for the binding entry in the assay with Flag-Twist2, in the assay with Ezh2 (in 293T cells) and with HA-Ring1b were “no binding”, “binds” and “binds”, respectively.

Turning to Flag-Snail1 (from UniProt O95863 1-264), the binding result in the assay with HA-HDAC1 and in the assay with Ezh2 (in 293T cells) was “binds” each time.

With Flag-DDX5 (from UniProt P17844 1-614), the binding result is on record as “no binding” in the assay with Flag-Snail1, “no binding” with Flag-Twist2, “binds” in the assay with Ezh2 (in 293T cells) and “binds” in the assay with HA-Ring1b.

With “DDX5 (endogenous, breast cell lines) (from UniProt P17844 1-614)”, the binding entry in assay [1], in assay [2] and in assay [3] was “binds” throughout.

For “DDX3X (endogenous, breast cell lines) (from UniProt O00571 1-662)”, the binding entry in assay [1], in assay [2] and in assay [3] was “binds” each time.
